Assay results reported in patent publication US20180030149A1 (AVEO PHARMACEUTICALS, published 2018).
Changes are numbered by the printed parent chain.

B1: Sh24C05-32 (antibody, human IgG1, kappa)
heavy: EVQLVESGGGLVKPGGSLRLSCAASGFTFSDYAMSWVRQAPGKGLEWVATISDGGTYTYYPDNVKGRFTISRDNAKNSLYLQMNSLRAEDTAVYYCAREWGDYDGFDYWGQGTLVTVSSASTKGPSVFPLAPSSKSTSGGTAALGCLVKDYFPEPVTVSWNSGALTSGVHTFPAVLQSSGLYSLSSVVTVPSSSLGTQTYICNVNHKPSNTKVDKRV[human IgG1 Fc not listed]
light: DIQMTQSPSSLSASVGDRVTITCRASQEISGYLSWYQQKPGKAPKLLIYAASTLDSGVPSRFSGSGSGTDFTFTISSLQPEDIATYYCLQYDSYPYTFGQGTKLEIKRTVAAPSVFIFPPSDEQLKSGTASVVCLLNNFYPREAKVQWKVDNALQSGNSQESVTEQDSKDSTYSLSSTLTLSKADYEKHKVYACEVTHQGLSSPVTKSFNRGEC
notes: Humanized, human IgG1/kappa
B2: Sh24C05-36 (antibody, human IgG1, kappa)
heavy: B1 heavy with K13Q
light: B1 light
notes: Humanized, human IgG1/kappa

Molecular target: T1, recombinant human ErbB3 monomeric protein (cleaved rhErbB3) (human, UniProt P21860 part only, limits assumed)
T1 construct: Monomer made by protease cleavage of the Fc fusion; also called Monomeric ErbB3
Experiment: SPR Biacore 37 C; supernatant antibody captured on anti-human Fc, cleaved rhErbB3 injected
Method: The analyses were performed at 37° C. using PBS (Invitrogen, Catalog No. 14040-133) containing 0.05% surfactant P20 (Biacore, Catalog No. BR-1000-54) as running buffer.
The antibodies were captured in individual flow cells at a flow rate of […]. Injection time was varied for each antibody to yield an Rₘₐₓ between 30 and 60 RU. […] The dissociation phase was monitored for up to 1200 seconds. The surface was then regenerated with two 60 second injections of Glycine pH 2.25 (made from Glycine pH 2.0 (Biacore, Catalog No. BR-1003-55) and pH 2.5 (Biacore, Catalog No. BR-1003-56)) at […].
Kinetic parameters were determined using the kinetic function of the BIAevaluation software (Biacore) with double reference subtraction. Kinetic parameters for each antibody, kₐ (association rate constant), kd (dissociation rate constant) and KD (equilibrium dissociation constant) were determined.

| Binder | Kd | koff | kon |
| --- | --- | --- | --- |
| B1 | 0.603 nM | 0.00602 s⁻¹ | 9.98e+06 M⁻¹ s⁻¹ |
| B2 | 0.837 nM | 0.00434 s⁻¹ | 5.18e+06 M⁻¹ s⁻¹ |
